Values marked as one replicate rest on one cluster of the flow cell; about a third of the high ones do not repeat.
Tested on: ATP
Assay: switch fluorescence ratio, 500 uM ATP over buffer (Cy3 cluster intensity, sum of 5 cycles each) (fold (ratio)); higher = stronger signal-on switching upon ATP binding; sequences stand for … in TCGTCGGCAGCGTCAGATGTGTATAAGAGACAGTTTTTTTTTTTTTTTTTTTTTTTTT…TC
Conditions: aptamer strand: ATP DNA aptamer (quencher-CACCTGGGGGAGTATTGCGGAGGAAGG + anchor), 100 nM annealed; ATP concentration: 500 uM; one replicate
How it was run: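 Switching-strand clusters labelled with Cy3 on a modified Illumina MiSeq flow-cell were annealed to 100 nM quencher-labelled ATP aptamer, imaged in selection buffer, and re-imaged after 15 min with 500 uM ATP at 22 °C. This was done over five cycles with NaOH stripping and re-annealing in between. The fluorescence ratio is summed target-cycle over summed buffer-cycle Cy3 intensity per cluster, averaged per switch-domain sequence, excluding clusters outside 100-1000 RFU.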
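Note: ATP exposure 15 min at 22 °C before imaging.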

| Sequence | switch fluorescence ratio |
| --- | --- |
| TAGGCAAAA | 1.11 |
| CAGGCAAGCC | 1.05 |
| GTATAGAGTC | 0.978 |
| GTTGAACAGC | 1 |
| GGAGACCAGC | 1.06 |
| GAAGGTCTCA | 1.01 |
| CGGAGGCCAG | 1.07 |
| GGCTATAAAC | 1.04 |
| TTTCTCAGGC | 0.945 |
| TCTTCAAGAA | 0.988 |
| AAAATGGGAT | 0.98 |
| TTCAGCGGCT | 1 |
| CGACCGGTGT | 1.41 |
| ATAGGCAATG | 1.06 |
| GCTGGGACTA | 0.992 |
| GCAAGAAATG | 1.03 |
| TCATCTATGT | 0.984 |
| TTCGTCGGGT | 0.975 |
| GCATGCGGCG | 1.01 |
| AATCACATTT | 1.02 |
| GTCCCAATGG | 1.56 |
| TCCTTCCGC | 4.7 |
| TAGGTCCTTA | 1.01 |
| TCCGTAGGT | 1.22 |
| CGGTCTTCAC | 1.04 |
| TCGTCGATTT | 1.16 |

| Sequence | switch fluorescence ratio |
| --- | --- |
| ATTTCCTGGT | 0.979 |
| GGTATTATCT | 0.998 |
| GATCGGCTCT | 0.957 |
| GACACACT | 1.59 |
| TCAACCATTC | 1.01 |
| TATGAGAAAC | 0.985 |
| TGCTAGTTTG | 1.03 |
| AACCTGTTCT | 0.992 |
| TACATTATCC | 1.08 |
| TGTTCCAAAT | 0.96 |
| TTATTGGCTG | 0.935 |
| GATTCTGGG | 1 |
| CAAACCTGGT | 1.07 |
| CTGAGTAAAA | 1.06 |
| AGGAGCGGCG | 1.01 |
| TAAAATTGGA | 1.02 |
| CGTTGCTCGC | 1.05 |
| CATAGGTTCG | 0.996 |
| AAAGCGGGAG | 0.986 |
| TAGTGATAAT | 0.989 |
| TCTTGACTCG | 0.986 |
| GGATGCAAAA | 1.04 |
| TCGTATCTAA | 0.99 |
| CATCTGTCTG | 1.01 |
| TGTTATACTT | 1.01 |
| TGCGATACCG | 1.14 |

| Sequence | switch fluorescence ratio |
| --- | --- |
| TCTAATATCG | 0.982 |
| ATCTAGACGC | 1.07 |
| AGCATCGCG | 1.03 |
| TGAATAGTAA | 1.01 |
| ATCAGATACG | 1.02 |
| CAATATATGT | 0.997 |
| GTGAAAATGT | 1.02 |
| CCTACTTTCA | 0.968 |
| GAACCAAGCA | 1.06 |
| GGAGACAAAT | 0.978 |
| GGAATGCTGG | 1.01 |
| GTGAGTGGGC | 0.976 |
| ATAGATACAG | 0.985 |
| CTTGGAGGAC | 1.07 |
| AATTATCCCG | 1.01 |
| GTAGGAGAAC | 0.997 |
| AAGATGTTTA | 1.24 |
| GGTGCCGGAG | 1 |
| TGCGTATCAT | 1.03 |
| AGACAGTCTC | 1.01 |
| TACAACATTA | 1.07 |
| CTCATAGCTG | 1.03 |
| GGCGGCTGTG | 0.963 |
| TATTTATTT | 1.06 |
| CTGTAAGCTT | 1.08 |
| TGTAACGCCT | 0.991 |

| Sequence | switch fluorescence ratio |
| --- | --- |
| AAAGATATTC | 1.03 |
| TAGTTATTGT | 1.03 |
| GTATTTATTT | 0.98 |
| GGTACAAAG | 1.04 |
| GCATCTCGTT | 0.99 |
| TAAATAACCA | 1.02 |
| CTGCCGAGGG | 0.972 |
| GAGGTCTCCT | 0.991 |
| AGGACTAGC | 1 |
| GTCCGTTTCT | 0.963 |
| CAGTTGCAGG | 1 |
| GTCTATGACT | 0.998 |
| TTCTCAATGA | 1.03 |
| AAAATGAGTC | 1.03 |
| TTAATACCAT | 0.979 |
| AAGATTGTCC | 1 |
| CAAGAGAGGG | 1.01 |
| ACCTAAAAAA | 0.978 |
| CGGCATAGTT | 0.998 |
| TGTTAACGCT | 1.02 |
| ACAGGGGAAC | 1.01 |
| GATACCACGC | 1.02 |
| AAGTCCGATG | 1.05 |
| TAACAAGGTG | 1.26 |
| AAAAGGTGTC | 1.03 |
| GATTGAAGCG | 0.992 |

| Sequence | switch fluorescence ratio |
| --- | --- |
| TCCACCGGAC | 1.88 |
| GCGTGGTTTG | 0.928 |
| ATCGAGAGTG | 0.98 |
| AAAGTAAGTG | 0.961 |
| CTTTAGGCCA | 1.02 |
| CCAGTGTATG | 1.04 |
| TCGTGCGACT | 0.979 |
| TCAGTTTGGG | 0.978 |
| CGTCTGGGTT | 0.997 |
| ATTTAAGGAG | 0.976 |
| CATTTTAGAC | 0.994 |
| ATCGTTAGGC | 0.971 |
| AGTTAACAGT | 0.979 |
| AATCCGTTCG | 1.03 |
| CACCGGCTCT | 1.03 |
| TCTCTCAGAG | 0.996 |
| ATATAACGGC | 1.03 |
| TATGTGAGAT | 0.953 |
| GCTATTTGC | 1.01 |
| GGGTCCTGGT | 0.942 |
| GAGTGCACAG | 0.974 |
| CAGGTCGTCT | 1.15 |
| TAATTAGGAC | 1.05 |
| ACAGCTCCGG | 1.01 |
| GCCGCATTTA | 1.48 |
| AAGGTACTGA | 1.03 |

| Sequence | switch fluorescence ratio |
| --- | --- |
| GTTGCTCCCT | 1.06 |
| AGTCATGCAA | 1.13 |
| CATCAACAGG | 1.15 |
| ACAAGAACA | 1.05 |
| CTTTTCTTGA | 0.964 |
| ATCAGCAAC | 2 |
| CTAATCAATG | 1.03 |
| CTTAAAGTTC | 1.02 |
| CTGTTGGCGG | 0.965 |
| TCCAGCAGAT | 1.23 |
| GGCACGGCGA | 0.989 |
| TTCTTCTGAC | 1.1 |
| GGATTGCATT | 1.01 |
| TACTCCATTA | 1.06 |
| TTGTGGAATA | 0.999 |
| GATATCCCGC | 1.13 |
| TCACGGTTAC | 1.48 |
| CAAATGACCC | 0.99 |
| CTTACTGGGG | 0.992 |
| GCAATAAGCG | 1.12 |
| GCCCTAATTT | 1.06 |
| AGCAAGTGGT | 1.02 |
| TCCCAAGACA | 1.15 |

— the supplement of paper PMC10126150
